Data from the supplement of paper PMC10441789.
The other results are listed elsewhere or left out. Antibody binding of pooled human sera (four to six donors per pool; dilution not stated) to peptides of the Trypanosoma cruzi antigen TSSA on microarrays. Quantile-normalised fluorescence in arbitrary units, mean of duplicate arrays; higher = more binding. No active / inactive call. The uninfected pools are read here as the healthy donors of the same country. The strongest signals lie near the top of the scale (about 60,000).

What was measured:
Test in all cases: antibody binding signal (normalised fluorescence) (arbitrary fluorescence units); higher = stronger serum antibody binding to peptide
[1] = tested on: pooled sera of chronic Chagas disease patients, Bolivia
Protocol: (§1)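 Microarray of 15-residue peptides over residues 30-55 of Trypanosoma cruzi TSSAII, each with 1 to 10 substitutions at naturally variable positions, probed with one serum pool per country.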

[2] = tested on: pooled sera of chronic Chagas disease patients, Brazil
Protocol: as §1

[3] = tested on: pooled sera of chronic Chagas disease patients, Colombia
Protocol: as §1

[4] = tested on: pooled sera of chronic Chagas disease patients, Mexico
Protocol: as §1

[5] = tested on: pooled sera of chronic Chagas disease patients, USA
Protocol: as §1

[6] = tested on: pooled sera of uninfected people, Argentina
Protocol: as §1

[7] = tested on: pooled sera of uninfected people, Bolivia
Protocol: as §1

[8] = tested on: pooled sera of uninfected people, Brazil
Protocol: as §1

[9] = tested on: pooled sera of uninfected people, Colombia
Protocol: as §1

[10] = tested on: pooled sera of uninfected people, Mexico
Protocol: as §1

[11] = tested on: pooled sera of uninfected people, USA
Protocol: as §1

| Sequence | antibody binding signal [1] | antibody binding signal [2] | antibody binding signal [3] | antibody binding signal [4] | antibody binding signal [5] | antibody binding signal [6] | antibody binding signal [7] | antibody binding signal [8] | antibody binding signal [9] | antibody binding signal [10] | antibody binding signal [11] |
| --- | --- | --- | --- | --- | --- | --- | --- | --- | --- | --- | --- |
| GKDNKTATGETPSPS | 1080 | 4850 | 9980 | 7560 | 10100 | 293 | 314 | 125 | 334 | 289 | 1940 |
| KEKKAATGGTPSQPG | 294 | 222 | 488 | 386 | 581 | 281 | 98.8 | 201 | 342 | 165 | 110 |
| GTDNKPAAGGAPSPP | 551 | 38800 | 2510 | 662 | 1300 | 205 | 542 | 355 | 417 | 432 | 146 |
| PSGTDKKTATGGTPS | 546 | 3710 | 5490 | 1820 | 2490 | 294 | 393 | 200 | 389 | 169 | 262 |
| TPPSGTDKKAATGGT | 3020 | 27700 | 3210 | 38500 | 1770 | 421 | 132 | 948 | 691 | 918 | 257 |
| KDKKTAAGETPSQPG | 315 | 17200 | 252 | 169 | 881 | 124 | 96.7 | 107 | 406 | 91.4 | 112 |
| KENKTATGEAPSPSG | 10300 | 14500 | 862 | 438 | 20200 | 204 | 141 | 142 | 180 | 140 | 163 |
| GTDNKAAAGEAPSQP | 27400 | 40600 | 229 | 212 | 13900 | 118 | 720 | 1530 | 86.2 | 110 | 107 |
| SGTDNKAATGETPSP | 6400 | 42400 | 279 | 276 | 12500 | 122 | 640 | 1070 | 200 | 280 | 1190 |
| TEKKAAAGETPSQPG | 2430 | 30600 | 485 | 388 | 3760 | 118 | 389 | 220 | 845 | 246 | 234 |
| GKDNKTATGGAPSPP | 357 | 316 | 2560 | 1520 | 1440 | 289 | 165 | 214 | 179 | 136 | 163 |
| GTDNKPAAGGTPSPP | 255 | 41600 | 1770 | 277 | 247 | 201 | 812 | 1130 | 563 | 440 | 135 |
| DKKPAAGGTPSPSGA | 199 | 309 | 5530 | 308 | 1220 | 219 | 138 | 1490 | 196 | 93.6 | 222 |
| PPSGKENKTAAGGTP | 731 | 4040 | 3590 | 4520 | 4910 | 3560 | 1240 | 278 | 551 | 761 | 270 |
| KDKKAATGEAPSQPG | 3080 | 31700 | 118 | 174 | 17400 | 256 | 76.5 | 86.8 | 170 | 85.3 | 98.9 |
| GTDKKPAAGEAPSPS | 1010 | 12700 | 8160 | 585 | 15500 | 150 | 292 | 126 | 138 | 632 | 126 |
| DKKTATGEAPSQSGA | 16400 | 16300 | 162 | 427 | 18900 | 221 | 129 | 156 | 113 | 232 | 194 |
| TENKTAAGEAPSQSG | 16500 | 11500 | 149 | 202 | 8450 | 293 | 163 | 224 | 169 | 235 | 151 |
| PPSGKDKKPATGEAP | 18400 | 42500 | 981 | 23100 | 29100 | 1030 | 713 | 166 | 281 | 116 | 167 |
| TSSTPPSGTEKKAAT | 12100 | 32800 | 470 | 18900 | 2870 | 1160 | 446 | 144 | 170 | 126 | 213 |
| DKKAATGEAPSPPGA | 17000 | 30400 | 287 | 561 | 24000 | 681 | 104 | 161 | 680 | 137 | 219 |
| GTEKKPAAGGTPSQS | 179 | 429 | 3900 | 1060 | 1140 | 178 | 586 | 1980 | 124 | 295 | 1570 |
| KDNKTAAGGTPSPSG | 259 | 209 | 3930 | 239 | 1340 | 260 | 237 | 341 | 203 | 282 | 138 |
| PPSGKDKKTATGETP | 404 | 856 | 1060 | 15400 | 3620 | 364 | 377 | 113 | 255 | 87.3 | 129 |
| GTENKAAAGETPSPS | 682 | 5310 | 1060 | 1600 | 3880 | 133 | 407 | 113 | 146 | 287 | 1930 |
| TPPSGTDNKTAAGGT | 39400 | 48600 | 1280 | 18300 | 7910 | 679 | 681 | 3220 | 301 | 244 | 234 |
| ENKTATGEAPSQSGA | 28900 | 23500 | 180 | 229 | 21300 | 137 | 103 | 199 | 123 | 134 | 114 |

| Sequence | antibody binding signal [1] | antibody binding signal [2] | antibody binding signal [3] | antibody binding signal [4] | antibody binding signal [5] | antibody binding signal [6] | antibody binding signal [7] | antibody binding signal [8] | antibody binding signal [9] | antibody binding signal [10] | antibody binding signal [11] |
| --- | --- | --- | --- | --- | --- | --- | --- | --- | --- | --- | --- |
| TSSTPPSGTDNKTAT | 44300 | 48800 | 1010 | 11400 | 20700 | 994 | 706 | 1740 | 194 | 216 | 288 |
| SGTENKAAAGEAPSP | 8650 | 24600 | 548 | 514 | 15200 | 528 | 292 | 159 | 119 | 124 | 277 |
| TSSTPPSGKEKKAAT | 202 | 306 | 372 | 23000 | 650 | 348 | 331 | 108 | 225 | 93.2 | 134 |
| TDNKPAAGEAPSPPG | 1150 | 32000 | 406 | 153 | 17700 | 95.7 | 327 | 258 | 105 | 267 | 78.3 |
| PSGKDNKTATGETPS | 1430 | 3220 | 2770 | 1490 | 6860 | 358 | 422 | 318 | 298 | 140 | 185 |
| SGTENKTAAGGAPSQ | 6950 | 12400 | 6880 | 766 | 3310 | 560 | 534 | 419 | 348 | 474 | 227 |
| SGKENKPAAGGTPSQ | 634 | 17800 | 5880 | 5670 | 17100 | 10400 | 3250 | 381 | 232 | 426 | 181 |
| TDKKTATGGTPSQSG | 422 | 578 | 3090 | 571 | 1460 | 413 | 106 | 284 | 719 | 269 | 134 |
| PSGTENKTAAGGTPS | 21800 | 44600 | 10200 | 5720 | 11100 | 1280 | 640 | 1190 | 526 | 3040 | 601 |
| TISTPPSGKDKKAAT | 593 | 704 | 256 | 43000 | 505 | 167 | 371 | 121 | 152 | 99 | 120 |
| PPSGKDNKPATGGAP | 899 | 22500 | 640 | 8380 | 11500 | 921 | 1660 | 179 | 306 | 193 | 404 |
| DNKPAAGGAPSQPGA | 1560 | 22200 | 1520 | 311 | 486 | 262 | 388 | 512 | 300 | 490 | 244 |
| KAAAGGTPSPSGASS | 257 | 198 | 4430 | 2090 | 967 | 139 | 117 | 390 | 226 | 78.8 | 181 |
| GTENKTATGGAPSPP | 1060 | 763 | 703 | 1110 | 1140 | 274 | 315 | 236 | 220 | 443 | 172 |
| STPPSGTENKAATGE | 44800 | 48500 | 213 | 2820 | 34900 | 3770 | 398 | 359 | 534 | 352 | 348 |
| TDNKAAAGEAPSQPG | 23700 | 42400 | 214 | 173 | 13000 | 82.3 | 341 | 159 | 86 | 78.4 | 97.2 |
| GTDKKTATGETPSPP | 556 | 1410 | 1260 | 585 | 8050 | 283 | 294 | 240 | 119 | 257 | 605 |
| GKDNKAATGETPSQS | 2020 | 20400 | 9440 | 11100 | 13800 | 198 | 316 | 173 | 255 | 129 | 115 |
| DKKTAAGGAPSQPGA | 856 | 628 | 5620 | 489 | 651 | 214 | 114 | 152 | 285 | 228 | 168 |
| TDNKPATGGTPSQPG | 893 | 17700 | 498 | 401 | 532 | 234 | 620 | 689 | 318 | 511 | 152 |
| EKKPAAGEAPSPPGA | 334 | 17500 | 384 | 259 | 14700 | 133 | 699 | 175 | 107 | 167 | 734 |
| KPATGEAPSPSGASS | 41700 | 46900 | 176 | 3290 | 44200 | 842 | 753 | 319 | 170 | 175 | 274 |
| SGTEKKTAAGEAPSQ | 11700 | 5960 | 622 | 663 | 8800 | 191 | 579 | 426 | 1160 | 192 | 105 |
| SGTDKKAATGGAPSQ | 396 | 3560 | 5750 | 1820 | 1460 | 358 | 564 | 202 | 722 | 634 | 207 |
| DNKTAAGEAPSQPGA | 27800 | 40400 | 383 | 340 | 7430 | 144 | 272 | 299 | 234 | 386 | 168 |
| GTEKKAAAGGTPSPS | 208 | 279 | 4760 | 555 | 1900 | 114 | 328 | 1350 | 201 | 83.5 | 131 |
| PPSGKENKAAAGETP | 6880 | 3930 | 1190 | 2130 | 4600 | 3550 | 2300 | 242 | 1230 | 268 | 337 |
